# Assay results: the supplement of paper PMC8728848
# The list shows a part of the results.
# B1: CaSRK1 (Capsicum annuum) (protein)
# chain: MALCKIFPFAFILLSCSCYLISGQRFDYPTANLSTTWINSVSAPHSIDYTDGSRIRAILLRGTFGPRYACGFYCNGNCESYLFAIFIVQTNSASQITSPAIGFPQVVWSANRNNPVKINSTLQLTAEGDLVLRDADGTLAWSTNTAGKSVAGLSLTDEGNLALFDSKNATVWQSFDHPTDALVPGQKLVPGMKLTASVSRTNWTAGGLFALSAIDNGLVAFVESNPPQKYFEASVGGSNTSGGSNYVKYLNGSLTLFTHSADTTELILISITPASSAQYMKLESNGHLKVYEWTSRGWREVDDLLTGFRGECNYPTVCGRYGICTMGQCSCPTSSSSRTYFRPIDVRRPSLGCSEVTKLTCQNTKKHSPLEVEDVDYFAFKAGISDTDLNTCKRACLEKCSCKAAFFRSGLNSSRTRGDCYLPTEIFSIMNNEKDRTRYDSVAFIKVQV
# Assays:
# Test in all cases: glycan array binding signal (z-score within array); higher = stronger binding
# Details in all cases: glycan notation: IUPAC condensed, linker removed
# [1] = molecular target: Neu5Ac(a2-3)GalNAc(b1-4)GlcNAc
# Procedure, shortened: (§1)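 The binding signal is a Z-score computed within each array and averaged over linkers. Arrays of the same protein sequence at different concentrations or buffers were also averaged together. Data originate from 3228 arrays in the Consortium for Functional Glycomics database, kept only where the protein sequence was available.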
# [2] = molecular target: Neu5Ac(a2-3)[GalNAc(b1-4)]Gal(b1-4)Glc
# Procedure, shortened: as §1
# [3] = molecular target: Neu5Ac(a2-3)[GalNAc(b1-4)]Gal(b1-4)GlcNAc
# Procedure, shortened: as §1
# [4] = molecular target: Neu5Ac(a2-3)[GalNAc(b1-4)]Gal(b1-4)GlcNAc(b1-3)GalNAc
# Procedure, shortened: as §1
# [5] = molecular target: Neu5Ac(a2-3)[Neu5Ac(a2-6)]GalNAc
# Procedure, shortened: as §1
# Neu5Ac(a2-6)Gal = molecular target: Neu5Ac(a2-6)Gal
# Procedure, shortened: as §1
# [6] = molecular target: Neu5Ac(a2-6)Gal(b1-3)GlcNAc(b1-3)[Gal(b1-4)GlcNAc(b1-6)]Gal(b1-4)Glc
# Procedure, shortened: as §1
# Neu5Ac(a2-6)Gal(b1-4)Glc = molecular target: Neu5Ac(a2-6)Gal(b1-4)Glc
# Procedure, shortened: as §1
# [7] = molecular target: Neu5Ac(a2-6)Gal(b1-4)GlcNAc
# Procedure, shortened: as §1
# [8] = molecular target: Neu5Ac(a2-6)Gal(b1-4)GlcNAc(b1-2)Man
# Procedure, shortened: as §1
# [9] = molecular target: Neu5Ac(a2-6)Gal(b1-4)GlcNAc(b1-2)Man(a1-3)Man(b1-4)GlcNAc(b1-4)GlcNAc
# Procedure, shortened: as §1
# [10] = molecular target: Neu5Ac(a2-6)Gal(b1-4)GlcNAc(b1-2)Man(a1-3)[Gal(b1-4)GlcNAc(b1-2)Man(a1-6)]Man(b1-4)GlcNAc(b1-4)GlcNAc
# Procedure, shortened: as §1
# [11] = molecular target: Neu5Ac(a2-6)Gal(b1-4)GlcNAc(b1-2)Man(a1-3)[GlcNAc(b1-2)Man(a1-6)]Man(b1-4)GlcNAc(b1-4)GlcNAc
# Procedure, shortened: as §1
# [12] = molecular target: Neu5Ac(a2-6)Gal(b1-4)GlcNAc(b1-2)Man(a1-3)[GlcNAc(b1-4)][Neu5Ac(a2-6)Gal(b1-4)GlcNAc(b1-2)Man(a1-6)]Man(b1-4)GlcNAc(b1-4)GlcNAc
# Procedure, shortened: as §1
# [13] = molecular target: Neu5Ac(a2-6)Gal(b1-4)GlcNAc(b1-2)Man(a1-3)[Man(a1-6)]Man(b1-4)GlcNAc(b1-4)GlcNAc
# Procedure, shortened: as §1
# [14] = molecular target: Neu5Ac(a2-6)Gal(b1-4)GlcNAc(b1-2)Man(a1-3)[Neu5Ac(a2-3)Gal(b1-4)GlcNAc(b1-2)Man(a1-6)]Man(b1-4)GlcNAc(b1-4)GlcNAc
# Procedure, shortened: as §1
# [15] = molecular target: Neu5Ac(a2-6)Gal(b1-4)GlcNAc(b1-2)Man(a1-3)[Neu5Ac(a2-6)Gal(b1-4)GlcNAc(b1-2)Man(a1-6)]Man(b1-4)GlcNAc(b1-4)GlcNAc
# Procedure, shortened: as §1
# [16] = molecular target: Neu5Ac(a2-6)Gal(b1-4)GlcNAc(b1-2)Man(a1-3)[Neu5Ac(a2-6)Gal(b1-4)GlcNAc(b1-2)Man(a1-6)]Man(b1-4)GlcNAc(b1-4)[Fuc(a1-6)]GlcNAc
# Procedure, shortened: as §1
# [17] = molecular target: Neu5Ac(a2-6)Gal(b1-4)GlcNAc(b1-2)Man(a1-6)Man(b1-4)GlcNAc(b1-4)GlcNAc
# Procedure, shortened: as §1
# [18] = molecular target: Neu5Ac(a2-6)Gal(b1-4)GlcNAc(b1-2)Man(a1-6)[Gal(b1-4)GlcNAc(b1-2)Man(a1-3)]Man(b1-4)GlcNAc(b1-4)GlcNAc
# Procedure, shortened: as §1
# [19] = molecular target: Neu5Ac(a2-6)Gal(b1-4)GlcNAc(b1-2)Man(a1-6)[GlcNAc(b1-2)Man(a1-3)]Man(b1-4)GlcNAc(b1-4)GlcNAc
# Procedure, shortened: as §1
# [20] = molecular target: Neu5Ac(a2-6)Gal(b1-4)GlcNAc(b1-2)Man(a1-6)[Man(a1-3)]Man(b1-4)GlcNAc(b1-4)GlcNAc
# Procedure, shortened: as §1
# [21] = molecular target: Neu5Ac(a2-6)Gal(b1-4)GlcNAc(b1-2)[Neu5Ac(a2-6)Gal(b1-4)GlcNAc(b1-4)]Man(a1-3)[GlcNAc(b1-4)][Neu5Ac(a2-6)Gal(b1-4)GlcNAc(b1-2)[Neu5Ac(a2-6)Gal(b1-4)GlcNAc(b1-6)]Man(a1-6)]Man(b1-4)GlcNAc(b1-4)GlcNAc
# Procedure, shortened: as §1
# [22] = molecular target: Neu5Ac(a2-6)Gal(b1-4)GlcNAc(b1-2)[Neu5Ac(a2-6)Gal(b1-4)GlcNAc(b1-4)]Man(a1-3)[GlcNAc(b1-4)][Neu5Ac(a2-6)Gal(b1-4)GlcNAc(b1-4)Man(a1-6)]Man(b1-4)GlcNAc(b1-4)GlcNAc
# Procedure, shortened: as §1
# [23] = molecular target: Neu5Ac(a2-6)Gal(b1-4)GlcNAc(b1-2)[Neu5Ac(a2-6)Gal(b1-4)GlcNAc(b1-6)]Man(a1-6)[Neu5Ac(a2-6)Gal(b1-4)GlcNAc(b1-2)Man(a1-3)][GlcNAc(b1-4)]Man(b1-4)GlcNAc(b1-4)GlcNAc
# Procedure, shortened: as §1
# [24] = molecular target: Neu5Ac(a2-6)Gal(b1-4)GlcNAc(b1-3)Gal(b1-3)GlcNAc
# Procedure, shortened: as §1
# [25] = molecular target: Neu5Ac(a2-6)Gal(b1-4)GlcNAc(b1-3)Gal(b1-4)GlcNAc
# Procedure, shortened: as §1
# [26] = molecular target: Neu5Ac(a2-6)Gal(b1-4)GlcNAc(b1-3)Gal(b1-4)GlcNAc(b1-2)Man(a1-3)[Neu5Ac(a2-6)Gal(b1-4)GlcNAc(b1-3)Gal(b1-4)GlcNAc(b1-2)Man(a1-6)]GalNAc
# Procedure, shortened: as §1
# [27] = molecular target: Neu5Ac(a2-6)Gal(b1-4)GlcNAc(b1-3)Gal(b1-4)GlcNAc(b1-3)Gal(b1-4)GlcNAc
# Procedure, shortened: as §1
# [28] = molecular target: Neu5Ac(a2-6)Gal(b1-4)GlcNAc(b1-3)Gal(b1-4)GlcNAc(b1-3)Gal(b1-4)GlcNAc(b1-2)Man(a1-3)[Neu5Ac(a2-6)Gal(b1-4)GlcNAc(b1-3)Gal(b1-4)GlcNAc(b1-3)Gal(b1-4)GlcNAc(b1-2)Man(a1-6)]GalNAc
# Procedure, shortened: as §1
# [29] = molecular target: Neu5Ac(a2-6)Gal(b1-4)GlcNAc(b1-3)Gal(b1-4)GlcNAc(b1-3)GalNAc
# Procedure, shortened: as §1
# [30] = molecular target: Neu5Ac(a2-6)Gal(b1-4)GlcNAc(b1-3)Gal(b1-4)GlcNAc(b1-3)[Neu5Ac(a2-6)Gal(b1-4)GlcNAc(b1-3)Gal(b1-4)GlcNAc(b1-6)]GalNAc
# Procedure, shortened: as §1
# [31] = molecular target: Neu5Ac(a2-6)Gal(b1-4)GlcNAc(b1-3)Gal(b1-4)GlcNAc(b1-6)[Gal(b1-3)]GalNAc
# Procedure, shortened: as §1
# [32] = molecular target: Neu5Ac(a2-6)Gal(b1-4)GlcNAc(b1-3)Gal(b1-4)[Fuc(a1-3)]GlcNAc(b1-3)Gal(b1-4)[Fuc(a1-3)]GlcNAc
# Procedure, shortened: as §1
# [33] = molecular target: Neu5Ac(a2-6)Gal(b1-4)GlcNAc(b1-3)GalNAc
# Procedure, shortened: as §1
# [34] = molecular target: Neu5Ac(a2-6)Gal(b1-4)GlcNAc(b1-3)[Neu5Ac(a2-6)Gal(b1-4)GlcNAc(b1-6)]GalNAc
# Procedure, shortened: as §1
# [35] = molecular target: Neu5Ac(a2-6)Gal(b1-4)GlcNAc(b1-6)GalNAc
# Procedure, shortened: as §1
binder,measurement,setting,value
B1,glycan array binding signal (z-score),[1],-0.332
same,glycan array binding signal (z-score),[2],-0.515
same,glycan array binding signal (z-score),[3],-0.414
same,glycan array binding signal (z-score),[4],-0.173
same,glycan array binding signal (z-score),[5],0.188
same,glycan array binding signal (z-score),Neu5Ac(a2-6)Gal,-0.452
same,glycan array binding signal (z-score),[6],-0.063
same,glycan array binding signal (z-score),Neu5Ac(a2-6)Gal(b1-4)Glc,-0.466
same,glycan array binding signal (z-score),[7],-0.264
same,glycan array binding signal (z-score),[8],-0.42
same,glycan array binding signal (z-score),[9],-0.527
same,glycan array binding signal (z-score),[10],-0.423
same,glycan array binding signal (z-score),[11],-0.609
same,glycan array binding signal (z-score),[12],-0.579
same,glycan array binding signal (z-score),[13],-0.539
same,glycan array binding signal (z-score),[14],-0.135
same,glycan array binding signal (z-score),[15],0.437
same,glycan array binding signal (z-score),[16],-0.491
same,glycan array binding signal (z-score),[17],-0.596
same,glycan array binding signal (z-score),[18],-0.59
same,glycan array binding signal (z-score),[19],-0.31
same,glycan array binding signal (z-score),[20],-0.589
same,glycan array binding signal (z-score),[21],-0.443
same,glycan array binding signal (z-score),[22],-0.513
same,glycan array binding signal (z-score),[23],-0.576
same,glycan array binding signal (z-score),[24],-0.15
same,glycan array binding signal (z-score),[25],-0.402
same,glycan array binding signal (z-score),[26],-0.326
same,glycan array binding signal (z-score),[27],-0.316
same,glycan array binding signal (z-score),[28],2.58
same,glycan array binding signal (z-score),[29],0.344
same,glycan array binding signal (z-score),[30],0.636
same,glycan array binding signal (z-score),[31],-0.554
same,glycan array binding signal (z-score),[32],-0.477
same,glycan array binding signal (z-score),[33],-0.275
same,glycan array binding signal (z-score),[34],-0.528
same,glycan array binding signal (z-score),[35],0.065
